# Data as given in the supplement of paper PMC12217912.
# This is one part of the list. The full chains were built here from the parent and the listed change. Inactive controls read about 0.05.
# B1: TEV protease; numbered along this chain (parent)
# chain: MGESLFKGPRDYNPISSSICHLTNESDGHTTSLYGIGFGPFIITNKHLFRRNNGTLVVQSLHGVFKVKDTTTLQQHLVDGRDMIIIRMPKDFPPFPQKLKFREPQREERICLVTTNFQTKSMSSMVSDTSCTFPSGDGIFWKHWIQTKDGQCGSPLVSTRDGFIVGIHSASNFTNTNNYFTSVPKNFMELLTNQEAQQWVSGWRLNADSVLWGGHKVFMVKPEEPFQPVKEATQL
# Variants of: B1
# Assay: raw area under fraction-flipped curve 0-4 h after induction (AUC4h, not background-subtracted), DNA-recorder readout of cleavage of the substrate (dimensionless); higher = more cleavage of the substrate by the protease variant
# Conditions: temperature: 34 °C; time window: 0-4 h after rhamnose induction
# Experimental: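 In vivo DNA recorder in E. coli TOP10(DE3) ΔrhaA at 34 °C. Each TEVp single-site mutant (parent TEVp 0) is paired with a single-site variant of the 7-mer TEVs (canonical ENLYFQ|S). The substrate sits between flexible linkers in a Bxb1-sfGFP-TEVs-SsrA fusion, so cleavage stabilises Bxb1 and speeds flipping of a recombination array, read by NGS. The value is the raw area under the fraction-flipped curve over 0-4 h after rhamnose induction (AUC4h), with ≥20 reads per time point. It is not background-subtracted; inactive controls average about 0.047.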
# 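Also: Bxb1 expression induced with 0.2% (w/v) L-rhamnose at OD600 near 0.5, cultures sampled hourly, flipped fraction per protease–substrate barcode pair counted by paired-end Illumina sequencing.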
Variant,area with substrate ENLYCQS,area with substrate ENLYEQS,area with substrate ENLYGQS,area with substrate ENLYIQS,area with substrate ENLYMQS,area with substrate ENLYQQS,area with substrate ENLYRQS,area with substrate ENLYSQS,area with substrate ENLYWQS,area with substrate ENLYDQS,area with substrate ENLYHQS,area with substrate ENLYKQS,area with substrate ENLYNQS,area with substrate ENLYYQS,area with substrate ENLYVQS,area with substrate ENLYPQS
MGESLFKGPRDYNPISSSICHLTNESDGHTTSLYGIGFGPFIITNKHLFRRNNGTLVVQSLHGVFKVKDTTTLQQHLVDGRDMIIIRMPKDFPPFPQKLKFREPQREERICLVTTNFQTKSMSSMVSDTSCTFPSGDGIFWKHWIQTKDGQCGSPLVSTRDGFIVGIHSASNFTNTNNYFTSVPKNFMELLTNQEAQQWVSGWRLNADSVLWGGHKVFMVKPEEPFQPVAEATQL [K230A],0.0834,0.064,0.0584,0.115,0.128,0.0634,0.0607,0.0636,0.0766,,,,,,,
MGESLFKGPRDYNPISSSICHLTNESDGHTTSLYGIGFGPFIITNKHLFRRNNGTLVVQSLHGVFKVKDTTTLQQHLVDGRDMIIIRMPKDFPPFPQKLKFREPQREERICLVTTNFQTKSMSSMVSDTSCTFPSGDGIFWKHWIQTKDGQCGSPLVSTRDGFIVGIHSASNFTNTNNYFTSVPKNFMELLTNQEAQQWVSGWRLNADSVLWGGHKVFMVKPEEPFQPVKIATQL [E231I],0.0821,,0.076,,0.0886,0.0634,,0.0982,0.0848,0.0661,0.0471,0.0723,0.0737,0.0781,,
MGESLFKGPRDYNPISSSICHLTNESDGHTTSLYGIGFGPFIITNKHLFRRNNGTLVVQSLHGVFKVKDTTTLQQHLVDGRDMIIIRMPKDFPPFPQKLKFREPQREERICLVTTNFQTKSMSSMVSDTSCTFPSGDGIFWKHWIQTKDGQCGSPLVSTRDGFIVGIHSASNFTNTNNYFTSVPKNFMELLTNQEAQQWVSGWRLNADSVLWGGHKVFMVKPEEPFQPVKEAYQL [T233Y],0.0658,0.0656,0.0766,0.0927,,,,,,0.0483,,0.0365,0.0405,0.081,0.109,
MIESLFKGPRDYNPISSSICHLTNESDGHTTSLYGIGFGPFIITNKHLFRRNNGTLVVQSLHGVFKVKDTTTLQQHLVDGRDMIIIRMPKDFPPFPQKLKFREPQREERICLVTTNFQTKSMSSMVSDTSCTFPSGDGIFWKHWIQTKDGQCGSPLVSTRDGFIVGIHSASNFTNTNNYFTSVPKNFMELLTNQEAQQWVSGWRLNADSVLWGGHKVFMVKPEEPFQPVKEATQL [G2I],,0.0671,0.0572,,0.105,0.0737,,,,0.0454,,,,,0.159,
MKESLFKGPRDYNPISSSICHLTNESDGHTTSLYGIGFGPFIITNKHLFRRNNGTLVVQSLHGVFKVKDTTTLQQHLVDGRDMIIIRMPKDFPPFPQKLKFREPQREERICLVTTNFQTKSMSSMVSDTSCTFPSGDGIFWKHWIQTKDGQCGSPLVSTRDGFIVGIHSASNFTNTNNYFTSVPKNFMELLTNQEAQQWVSGWRLNADSVLWGGHKVFMVKPEEPFQPVKEATQL [G2K],,0.0624,0.0719,,,0.0581,0.051,,0.209,0.0546,0.0721,,0.0911,0.0897,0.157,0.0807
